About 1,200 (2.5%) of roughly 48,000 compounds were called active. Inconclusive results (about 2%) are left out.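 How the source made its calls: active means activation of at least 60% and not above a set upper limit (about 1 call in 100 departs from these limits); inconclusive means activation of 40% to 60%, or above that upper limit; inactive means activation under 40%.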 The list shows a part of the results.
The compounds below were run against Probable G-protein coupled receptor 32 (Homo sapiens) (UniProt O75388) (assay: qHTS for Agonists of Human Resolvin D1 Receptor DRV1). Conditions: CHO-K1 GPR32 beta-arrestin PathHunter luminescence, 90 min; at 76.9 µM; active compounds read high; zero percent set by DMSO-only wells.
Chain of UniProt O75388 (O75388 whole entry, looked up): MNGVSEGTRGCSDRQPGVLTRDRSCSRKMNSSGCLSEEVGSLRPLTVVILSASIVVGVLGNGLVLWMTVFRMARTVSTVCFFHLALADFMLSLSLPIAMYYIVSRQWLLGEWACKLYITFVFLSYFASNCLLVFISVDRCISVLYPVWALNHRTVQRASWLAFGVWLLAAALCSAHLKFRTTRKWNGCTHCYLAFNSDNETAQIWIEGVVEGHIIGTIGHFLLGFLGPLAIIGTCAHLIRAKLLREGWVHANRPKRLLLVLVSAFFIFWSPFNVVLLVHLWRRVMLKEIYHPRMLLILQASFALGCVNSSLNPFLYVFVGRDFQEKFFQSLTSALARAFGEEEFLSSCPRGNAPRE
Procedure, shortened: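 PathHunter beta-arrestin recruitment in CHO-K1 cells stably expressing ProLink-tagged GPR32. Cells were exposed to compound for 90 min at 37 C, then chemiluminescence was read after 1 h detection at ambient temperature; DMSO served as basal control.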
Further: 0% is about no effect.

Row | Structure (SMILES) | activation
1 | CCCSc1ncc(Cl)c(C(=O)Nc2nc3ccc(C)cc3s2)n1 | inactive: -16.2%
2 | CSc1ccc(CCNC(=O)c2ccc3c(Cl)c4c(nc3c2)CCCC4)cc1 | inactive: 14.4%
3 | Cc1nn2c(=O)cc(COC(=O)c3cccs3)nc2s1 | inactive: -1.5%
4 | COc1ccc(S(=O)(=O)c2c(O)c3ccc(C(=O)Nc4ccccc4)cc3[nH]c2=O)cc1 | inactive: -6.01%
5 | Cc1cc(C)c2c(CC(=O)Nc3ccccc3C(F)(F)F)coc2c1 | inactive: 0.116%
6 | CCc1ccccc1NC(=O)Cn1nc(C(F)(F)F)c2c1CCC2 | inactive: -6.93%
7 | CN(C)c1ccc(C(CNS(=O)(=O)c2ccc(Cl)cc2)N2CCOCC2)cc1 (configuration not stated) | inactive: -18%
8 | CCc1nn(CC(=O)Nc2cccc(C(C)=O)c2)c(=O)c2cc3sccc3n12 | inactive: -25.3%
9 | CCS(=O)(=O)c1ncc(Cl)c(C(=O)NCc2ccc(OC)cc2)n1 | inactive: -14%
10 | CCOC(=O)N1CCC(Nc2ccc(Cl)cc2N)CC1 | inactive: -8.41%
11 | Cc1cccc(NC(=O)C2CCN(c3nnc(C)c4c(C)n(-c5ccccc5)nc34)CC2)c1C | inactive: -14.2%
12 | O=C(NCc1ccccc1)C(=O)NCC(c1ccco1)S(=O)(=O)c1cccs1 (configuration not stated) | inactive: -16.8%
13 | Cc1ccc(Cl)cc1NC(=O)C1CCCN(c2cnccn2)C1 (configuration not stated) | inactive: -1.57%
14 | O=C(CCn1c(=O)c2ccccc2n(Cc2cccc(Cl)c2)c1=O)NCCc1ccccc1 | inactive: 3.39%
15 | CN(c1ccccc1C(=O)O)S(=O)(=O)c1ccc2[nH]c(=O)oc2c1 | inactive: -5.77%
16 | CCOC(=O)c1ccccc1NC(=O)Cn1c(=O)n(Cc2nc(C)no2)c(=O)c2ccccc21 | inactive: -23.3%
17 | CCOC(=O)CSc1nc2cc3c(cc2c(=O)n1Cc1ccc(C(=O)NCCc2ccc(OC)c(OC)c2)cc1)OCO3 | inactive: -10.8%
18 | COc1cc(OC)c(N(C)C(=O)c2c(C)oc3ncn(CC(C)C)c(=O)c23)cc1Cl | inactive: -23.8%
19 | Cc1c(-c2ccccc2)nc2c(Cl)cccc2c1C(=O)OCC(=O)c1ccc(F)cc1 | inactive: -7.04%
20 | Cc1cc(C)c2c(CC(=O)N(Cc3ccc(Cl)cc3)Cc3ccco3)coc2c1 | inactive: -28.1%
21 | O=C(Nc1ccccc1)c1nc[nH]c1C(=O)O | inactive: -0.184%
22 | COc1ccc(-c2cc(C(F)(F)F)nc(SCC(=O)NCCc3ccccc3)n2)cc1 | inactive: 14.1%

Row | Structure (SMILES) | activation
23 | CCOc1ccccc1C(=O)N(Cc1sccc1C)C1CCS(=O)(=O)C1 (configuration not stated) | inactive: -12%
24 | Cc1ccc(NC(=O)Cn2cc(S(=O)(=O)Cc3ccc(F)cc3)c3ccccc32)cc1Cl | inactive: 16.4%
25 | N#Cc1c(-n2ncnc2-c2ccc(F)cc2)sc2c1CCCCC2 | active: 69%
26 | O=C(C1CCN(S(=O)(=O)c2ccc(Br)s2)CC1)N1CCN(c2cccc(C(F)(F)F)c2)CC1 | inactive: -11.9%
27 | CCCSc1ncc(Cl)c(C(=O)Nc2sc3c(c2C(=O)OC)CCCC3)n1 | inactive: -2.04%
28 | O=C(CSCc1cnn(-c2ccccc2)c1-n1cccc1)NCc1cccc(Cl)c1 | inactive: -19%
29 | COc1cc(NC(=O)Cn2c(=O)ccc3cc(S(=O)(=O)N4CCCC4)ccc32)cc(OC)c1 | inactive: 9.73%
30 | CCC(C)NC(=O)CCC(=O)N1Cc2ccccc2Oc2ncccc21 (configuration not stated) | inactive: -4.98%
31 | CC1=C(C(=O)N2CCN(c3ccccc3)CC2)C2(CCCCC2)OC1=O | inactive: -22%
32 | Cc1ccc(S(=O)(=O)Nc2ccc3nc(-c4ccc(F)cc4)oc3c2)cc1 | active: 66.5%
33 | CC(C)(C)NC(=O)c1oc2ccccc2c1NC(=O)c1ccccc1F | inactive: -23.3%
34 | CCOC(=O)c1c(C)[nH]c(C)c1S(=O)(=O)N(C)CC(=O)Nc1ccc(CC)cc1 | inactive: -8.22%
35 | COc1ccc(/C=C\c2onc(C)c2S(=O)(=O)N2CCC(C(=O)Nc3cccc(OC)c3)CC2)cc1 | inactive: -25.4%
36 | COc1ccc(CNC(=O)c2cc3ccccn3n2)cc1OC | inactive: -7.75%
37 | Cc1ccc(-n2nc(C)c(C(=O)O)c2-n2cccc2)cc1 | inactive: -11.7%
38 | Cc1ccc(CNC(=O)c2c(C)oc3ncnc(N4CCOCC4)c23)cc1 | inactive: -9.33%
39 | CCc1ccc(-n2c(=O)c3c4c(sc3n(CC(=O)c3ccc(Br)cc3)c2=O)CCC4)cc1 | inactive: -0.456%
40 | O=C(NCc1ccccc1)c1cc2ccc3cccnc3c2[nH]1 | inactive: 11.1%
41 | CCCNC(=O)CN1C(=O)CSc2ccc(S(=O)(=O)N3CCC(C)CC3)cc21 | inactive: 5.75%
42 | Cc1ccc(Nc2c(C(C)C)c(C)c(C#N)c3nc4ccccc4n23)cc1 | inactive: 12.6%
43 | CCC(C)NC(=O)CCCc1nnc2n(CC(C)C)c(=O)c3sccc3n12 (configuration not stated) | inactive: 4.48%
44 | CCN(CC)C(=O)C1CCN(S(=O)(=O)c2c(C)noc2/C=C/c2cccc(OC)c2)CC1 | inactive: -18.3%

Row | Structure (SMILES) | activation
45 | COc1ccc2c(c1)CCc1c(C(=O)Nc3c(C)nn(Cc4ccccc4)c3C)noc1-2 | inactive: 9.8%
46 | Cc1ccccc1-c1noc(-c2ccc(NCc3ccco3)c([N+](=O)[O-])c2)n1 | inactive: -0.619%
47 | CCOc1ccc(NC(=O)c2cc(S(=O)(=O)NC3CCCCCC3)ccc2F)cc1 | inactive: -22.8%
48 | CCOc1ccc(-n2c(=O)c3c(C)c(C)sc3n(CC(=O)NCCc3ccccc3)c2=O)cc1 | inactive: -9.53%
49 | COc1ccc2c(Sc3ccc(C)cc3)c(C(=O)NC(C)C)[nH]c2c1 | inactive: -7.07%
50 | CCOc1ccccc1NC(=O)CSc1nccn1-c1cccc(C)c1 | inactive: 19.2%
51 | Cc1ccc(NC(=O)/C=C\C(=O)N(c2ccc(C(C)C)cc2)C(C(=O)NCc2ccco2)c2ccc(F)cc2)cc1 (configuration not stated) | inactive: -20.5%
52 | COCCCNC(=O)c1nn(-c2ccc(C)cc2)nc1CO | inactive: -4.3%
53 | CCOc1ccc(C2CC(=O)c3c([nH]c(C(=O)OCC4CCCCC4)c3C)C2)cc1 (configuration not stated) | inactive: -6.37%
54 | O=c1oc2ccccc2c(N2CCN(c3ccccc3F)CC2)c1CN1CCCC1 | inactive: -3.62%
55 | Cc1ccc(S(=O)(=O)C(CNC(=O)C(=O)NCCc2ccccc2)c2cccs2)cc1 (configuration not stated) | inactive: 7.36%
56 | CCCc1cc(=O)oc2cc(C)c3c(-c4ccccc4)coc3c12 | inactive: -9.42%
57 | Cc1cccc(CNC(=O)Cn2ccc3cc(S(=O)(=O)N4CCCCCC4)ccc32)c1 | inactive: 32.8%
58 | COc1cccc(NC(=O)C(Cc2ccccc2)NS(=O)(=O)c2ccc3c(c2)c(=O)n(C)c(=O)n3C)c1 (configuration not stated) | inactive: -3.25%
59 | Cc1ccc(NC(=O)CC2Nc3ccccc3NC2=O)cc1C (configuration not stated) | inactive: 19.2%
60 | O=C(CN1C(=O)CSc2ccc(S(=O)(=O)N3CCCC3)cc21)Nc1cccc(Cl)c1 | inactive: -19.3%
61 | Cc1ccc(OCC(=O)Nc2nnc(S(=O)(=O)N3CCCCCC3)s2)cc1 | inactive: 9.67%
62 | O=C(NCc1ccc(F)cc1)C1(c2cccs2)CCOCC1 | inactive: -5.47%
63 | COc1cc(Nc2nc3c(S(=O)(=O)c4ccc(C)c(C)c4)nnn3c3ccsc23)cc(OC)c1 | inactive: -5.35%
64 | CCOC(=O)c1c(NC(=O)C2c3ccccc3Oc3ccccc32)sc(C)c1CC | inactive: -12.2%
65 | Oc1ccc(NCc2ccccc2OCc2ccc(Cl)cc2)cc1 | inactive: 0.322%
66 | CCn1c(=O)cc(OCC(=O)N(C)c2cc(Cl)ccc2C)c2ccccc21 | inactive: 39.5%

Row | Structure (SMILES) | activation
67 | COC(=O)c1ccccc1NC(=O)N1CCC(N2CCN(Cc3ccc(F)cc3)C(=O)C2=O)CC1 | inactive: -19.6%
68 | CC(C)(C)C1CCc2nc(NC(=O)Cc3ccccc3)sc2C1 (configuration not stated) | inactive: -25.2%
69 | COc1ccccc1N1C(=O)N(CC(=O)C(C)(C)C)c2ccccc2S1(=O)=O | inactive: -0.3%
70 | CSc1ccc(-c2nc3cccc(C)n3c2Nc2ccc(Cl)cc2)cc1 | inactive: -2.26%
71 | CN(C)CCNC(=O)c1ccc(-c2nn(C)c(=O)c3ccccc23)cc1 | inactive: -6.67%
72 | O=C1CN(C(=O)COc2ccc(Cl)cc2Cl)C(c2ccccc2)c2cc(F)ccc2N1 (configuration not stated) | inactive: -14.6%
73 | CCCCC(CC)COC(=O)c1ccc(N(C)C)cc1 (configuration not stated) | inactive: -42.8%
74 | COc1cc(O)c(C(=O)c2ccccc2)cc1S(=O)(=O)O | inactive: -61.8%
75 | O=C(O)Cc1ccccc1Oc1ccc(Cl)cc1Cl | inactive: -0.299%
76 | COc1cc(OC)cc(OC)c1 | inactive: 4.42%
77 | CCOc1ccc(CCNC(=O)c2nn(C)c3c2CSc2ccccc2-3)cc1 | inactive: -11.7%
78 | CC(C)c1ccc(S(=O)(=O)c2cnc(SCC(=O)Nc3ccc4c(c3)OCCO4)[nH]c2=O)cc1 | inactive: 13.9%
79 | Cc1ccc(Cn2cnc3nc4c(cc3c2=O)CC(C)CC4)cc1 (configuration not stated) | inactive: -10.9%
80 | CCOc1ccccc1CNC(=O)CCCn1ccc2cc(S(=O)(=O)N3CCCC3)ccc21 | inactive: -2.67%
81 | Cc1cccc(C(=O)NNc2ncnc3c2cnn3-c2ccc(C)cc2C)c1 | active: 113%
82 | O=C(O)c1ccc(NC(=O)c2cc(S(=O)(=O)N3CCCCC3)c(Cl)cc2Cl)cc1 | inactive: -5.17%
83 | O=C(CN1N=C(c2ccc(Cl)cc2)CCC1=O)NCCc1ccccc1 | inactive: -19.6%
84 | C=C1C[C@@]23CC[C@H]4[C@@](C)(CCC[C@@]4(C)C(=O)O)[C@@H]2CC[C@]1(O)C3 | inactive: -4.26%
85 | CC(C)(Oc1ccc(Br)cc1)C(=O)Nc1cc(-c2nc3ccccc3[nH]2)ccc1Cl | inactive: 18.4%
86 | CCc1c(C)nc2nncn2c1NCc1ccc(Cl)cc1 | active: 65.7%
87 | CNCc1ccccc1 | inactive: -2.18%
